In publication PMC5342809:
Results are given in words; binding and its absence hold for the method and conditions named. Binding seen in cells or lysates may run through a third protein. Some results given as binding are weak or reduced against the parent protein; the word gives no strength. For part of these data: Tags and fused reporters may be left off the sequences shown.

Key:
[1] = molecular target: T1, Smad anchor for receptor activation (SARA) (endogenous) (human (endogenous in HCT116)) (UniProt O95405); experiment: co-IP; endogenous proteins from NP40 lysates of HCT116 cells precipitated with anti-Smad3, anti-TβRI or anti-SARA antibody, normal IgG as control, overnight at 4°C; also with Kindlin-1 siRNA, Kindlin-1 overexpression or re-expression, and TGF-β1 stimulation
T1 sequence: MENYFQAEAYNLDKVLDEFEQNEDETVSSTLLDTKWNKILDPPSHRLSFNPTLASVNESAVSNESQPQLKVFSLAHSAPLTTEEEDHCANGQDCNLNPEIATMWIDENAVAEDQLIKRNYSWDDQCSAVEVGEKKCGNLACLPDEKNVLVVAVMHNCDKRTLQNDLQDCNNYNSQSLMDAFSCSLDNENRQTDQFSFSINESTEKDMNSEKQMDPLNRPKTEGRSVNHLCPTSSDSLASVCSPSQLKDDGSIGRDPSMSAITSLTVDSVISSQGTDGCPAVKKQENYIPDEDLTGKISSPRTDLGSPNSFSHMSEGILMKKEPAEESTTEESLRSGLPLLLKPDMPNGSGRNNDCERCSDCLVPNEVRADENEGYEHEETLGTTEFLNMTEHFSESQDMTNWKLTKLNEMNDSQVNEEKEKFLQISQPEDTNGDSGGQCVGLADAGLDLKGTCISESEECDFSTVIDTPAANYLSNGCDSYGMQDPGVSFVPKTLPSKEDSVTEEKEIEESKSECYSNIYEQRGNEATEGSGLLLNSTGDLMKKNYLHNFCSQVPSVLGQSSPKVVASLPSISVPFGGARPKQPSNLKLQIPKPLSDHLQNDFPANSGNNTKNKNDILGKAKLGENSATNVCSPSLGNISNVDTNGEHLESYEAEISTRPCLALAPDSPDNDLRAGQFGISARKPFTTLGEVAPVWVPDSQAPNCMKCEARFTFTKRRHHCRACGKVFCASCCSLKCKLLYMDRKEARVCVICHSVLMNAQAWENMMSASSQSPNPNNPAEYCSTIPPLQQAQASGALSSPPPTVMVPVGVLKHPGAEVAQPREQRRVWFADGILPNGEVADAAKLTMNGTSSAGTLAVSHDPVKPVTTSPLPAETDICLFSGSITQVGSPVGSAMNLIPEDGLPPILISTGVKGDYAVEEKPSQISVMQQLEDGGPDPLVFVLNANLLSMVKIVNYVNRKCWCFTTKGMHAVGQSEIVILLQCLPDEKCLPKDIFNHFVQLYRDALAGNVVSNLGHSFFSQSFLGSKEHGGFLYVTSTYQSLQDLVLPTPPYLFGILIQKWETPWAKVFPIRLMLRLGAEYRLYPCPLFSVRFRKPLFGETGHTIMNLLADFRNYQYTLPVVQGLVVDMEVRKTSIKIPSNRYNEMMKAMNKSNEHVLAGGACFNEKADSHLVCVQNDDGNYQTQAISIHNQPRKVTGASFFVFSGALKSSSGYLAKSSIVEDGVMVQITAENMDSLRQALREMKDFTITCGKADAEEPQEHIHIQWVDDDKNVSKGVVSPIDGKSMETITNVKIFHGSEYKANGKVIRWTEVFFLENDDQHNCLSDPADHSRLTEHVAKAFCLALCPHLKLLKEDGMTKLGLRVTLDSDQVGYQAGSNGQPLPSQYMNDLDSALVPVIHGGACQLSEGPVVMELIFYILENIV

Flag-Kindlin-1-C = molecular target: T2, Flag-Kindlin-1-C (UniProt Q9BQL6); experiment: co-IP; anti-Flag antibody on NP40 lysates of HCT116 cells transfected with Flag-Kindlin-1 or its truncations; endogenous partners detected by immunoblot; overnight at 4°C
T2 sequence: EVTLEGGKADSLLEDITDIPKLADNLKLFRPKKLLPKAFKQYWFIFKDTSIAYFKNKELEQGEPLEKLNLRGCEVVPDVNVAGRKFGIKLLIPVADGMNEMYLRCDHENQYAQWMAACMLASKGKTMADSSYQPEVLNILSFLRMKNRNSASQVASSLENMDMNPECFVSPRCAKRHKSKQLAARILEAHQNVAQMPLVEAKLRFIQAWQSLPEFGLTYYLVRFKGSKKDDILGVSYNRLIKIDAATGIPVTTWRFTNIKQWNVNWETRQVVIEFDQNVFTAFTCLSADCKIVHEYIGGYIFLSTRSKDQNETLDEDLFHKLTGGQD

Flag-Kindlin-1 = molecular target: T3, Flag-Kindlin-1 (UniProt Q9BQL6); experiment: as above
T3 sequence: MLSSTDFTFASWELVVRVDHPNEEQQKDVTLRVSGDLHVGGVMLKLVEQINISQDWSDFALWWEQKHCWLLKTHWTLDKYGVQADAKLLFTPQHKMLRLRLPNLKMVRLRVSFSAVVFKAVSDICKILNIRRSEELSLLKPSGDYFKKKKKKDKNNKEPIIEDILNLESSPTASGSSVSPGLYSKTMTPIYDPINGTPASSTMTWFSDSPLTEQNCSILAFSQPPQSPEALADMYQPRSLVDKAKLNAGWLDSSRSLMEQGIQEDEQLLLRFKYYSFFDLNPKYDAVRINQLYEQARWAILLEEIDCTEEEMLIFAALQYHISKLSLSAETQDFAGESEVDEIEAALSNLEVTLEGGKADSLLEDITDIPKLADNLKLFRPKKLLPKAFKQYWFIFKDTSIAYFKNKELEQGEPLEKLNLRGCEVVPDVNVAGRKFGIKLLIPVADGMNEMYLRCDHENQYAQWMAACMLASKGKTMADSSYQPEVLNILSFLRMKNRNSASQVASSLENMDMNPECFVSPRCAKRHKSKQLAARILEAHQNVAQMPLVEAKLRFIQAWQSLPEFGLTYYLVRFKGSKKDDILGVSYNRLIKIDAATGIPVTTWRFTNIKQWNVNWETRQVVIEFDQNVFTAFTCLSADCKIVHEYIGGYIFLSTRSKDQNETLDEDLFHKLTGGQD

Measured: binding

B1: TGF-β receptor I (endogenous) (receptor, UniProt P36897 34-503)
chain: LQCFCHLCTKDNFTCVTDGLCFVSVTETTDKVIHNSMCIAEIDLIPRDRPFVCAPSSKTGSVTTTYCCNQDHCNKIELPTTVKSSPGLGPVELAAVIAGPVCFVCISLMLMVYICHNRTVIHHRVPNEEDPSLDRPFISEGTTLKDLIYDMTTSGSGSGLPLLVQRTIARTIVLQESIGKGRFGEVWRGKWRGEEVAVKIFSSREERSWFREAEIYQTVMLRHENILGFIAADNKDNGTWTQLWLVSDYHEHGSLFDYLNRYTVTVEGMIKLALSTASGLAHLHMEIVGTQGKPAIAHRDLKSKNILVKKNGTCCIADLGLAVRHDSATDTIDIAPNHRVGTKRYMAPEVLDDSINMKHFESFKRADIYAMGLVFWEIARRCSIGGIHEDYQLPYYDLVPSDPSVEEMRKVVCEQKLRPNIPNRWQSCEALRVMAKIMRECWYANGAARLTALRIKKTLSQLSQQEGIKM
binds: [1] | Flag-Kindlin-1-C | Flag-Kindlin-1
